Laboratory results published in paper PMC12421383, “Autophosphorylation of conserved yeast and human casein kinase 1 isozymes regulates Elongator-dependent tRNA modifications” (Nucleic Acids Research, 2025).
Results are given in words; binding and its absence hold for the method and conditions named. For some of these results: Binding seen in cells or lysates may run through a third protein. Some binding calls cover weakened binding; strength is not graded here. Tags and fused reporters may be left off the sequences shown.

T1: GST-tagged Sit4 (Saccharomyces cerevisiae (budding yeast)) (UniProt P20604)
T1 sequence: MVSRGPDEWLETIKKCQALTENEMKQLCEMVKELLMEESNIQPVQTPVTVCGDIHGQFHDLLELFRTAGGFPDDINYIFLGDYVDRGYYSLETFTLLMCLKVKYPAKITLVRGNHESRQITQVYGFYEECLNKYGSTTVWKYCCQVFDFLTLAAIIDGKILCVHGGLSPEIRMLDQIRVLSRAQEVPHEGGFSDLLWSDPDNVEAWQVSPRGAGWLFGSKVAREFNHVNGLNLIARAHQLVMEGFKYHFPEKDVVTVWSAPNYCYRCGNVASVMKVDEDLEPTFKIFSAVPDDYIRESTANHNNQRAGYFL

T2: FL GST-Elp1 (Saccharomyces cerevisiae (budding yeast)) (UniProt Q06706)
T2 sequence: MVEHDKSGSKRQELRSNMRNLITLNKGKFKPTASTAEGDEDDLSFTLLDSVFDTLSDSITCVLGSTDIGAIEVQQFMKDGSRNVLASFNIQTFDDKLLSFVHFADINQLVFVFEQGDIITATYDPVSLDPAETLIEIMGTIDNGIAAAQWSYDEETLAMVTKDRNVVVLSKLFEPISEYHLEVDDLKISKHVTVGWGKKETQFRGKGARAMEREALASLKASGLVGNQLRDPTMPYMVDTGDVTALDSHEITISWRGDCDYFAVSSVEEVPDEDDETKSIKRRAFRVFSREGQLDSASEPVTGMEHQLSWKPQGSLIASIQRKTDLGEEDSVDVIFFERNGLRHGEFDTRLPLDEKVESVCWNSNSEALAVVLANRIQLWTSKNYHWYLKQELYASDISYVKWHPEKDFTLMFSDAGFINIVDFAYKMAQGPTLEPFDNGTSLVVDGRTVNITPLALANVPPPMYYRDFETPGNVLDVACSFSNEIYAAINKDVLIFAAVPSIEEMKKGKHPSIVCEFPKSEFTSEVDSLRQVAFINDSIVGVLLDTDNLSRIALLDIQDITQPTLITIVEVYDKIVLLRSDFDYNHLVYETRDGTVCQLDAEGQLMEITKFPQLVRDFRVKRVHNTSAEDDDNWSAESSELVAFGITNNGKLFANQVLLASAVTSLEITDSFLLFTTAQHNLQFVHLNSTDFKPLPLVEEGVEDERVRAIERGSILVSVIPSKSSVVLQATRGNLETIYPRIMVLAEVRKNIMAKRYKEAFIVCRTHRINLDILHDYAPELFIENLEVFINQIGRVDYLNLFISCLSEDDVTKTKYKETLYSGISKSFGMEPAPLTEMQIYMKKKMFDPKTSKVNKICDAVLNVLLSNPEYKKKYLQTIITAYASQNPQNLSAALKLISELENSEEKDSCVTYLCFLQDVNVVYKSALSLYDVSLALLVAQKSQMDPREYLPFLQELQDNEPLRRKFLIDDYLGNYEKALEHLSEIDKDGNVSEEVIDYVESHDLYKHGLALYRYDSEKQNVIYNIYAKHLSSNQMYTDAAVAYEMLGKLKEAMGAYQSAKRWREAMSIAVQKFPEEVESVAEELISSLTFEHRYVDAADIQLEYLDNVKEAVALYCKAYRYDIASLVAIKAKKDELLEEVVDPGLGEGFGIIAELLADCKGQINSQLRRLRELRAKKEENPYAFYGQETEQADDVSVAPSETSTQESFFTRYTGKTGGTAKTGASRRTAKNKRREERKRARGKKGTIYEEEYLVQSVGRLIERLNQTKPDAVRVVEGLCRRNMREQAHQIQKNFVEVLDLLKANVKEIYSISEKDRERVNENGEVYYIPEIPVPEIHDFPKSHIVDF

T3: Myc-tagged Elp1 (Saccharomyces cerevisiae (budding yeast)) (UniProt Q06706)
T3 sequence: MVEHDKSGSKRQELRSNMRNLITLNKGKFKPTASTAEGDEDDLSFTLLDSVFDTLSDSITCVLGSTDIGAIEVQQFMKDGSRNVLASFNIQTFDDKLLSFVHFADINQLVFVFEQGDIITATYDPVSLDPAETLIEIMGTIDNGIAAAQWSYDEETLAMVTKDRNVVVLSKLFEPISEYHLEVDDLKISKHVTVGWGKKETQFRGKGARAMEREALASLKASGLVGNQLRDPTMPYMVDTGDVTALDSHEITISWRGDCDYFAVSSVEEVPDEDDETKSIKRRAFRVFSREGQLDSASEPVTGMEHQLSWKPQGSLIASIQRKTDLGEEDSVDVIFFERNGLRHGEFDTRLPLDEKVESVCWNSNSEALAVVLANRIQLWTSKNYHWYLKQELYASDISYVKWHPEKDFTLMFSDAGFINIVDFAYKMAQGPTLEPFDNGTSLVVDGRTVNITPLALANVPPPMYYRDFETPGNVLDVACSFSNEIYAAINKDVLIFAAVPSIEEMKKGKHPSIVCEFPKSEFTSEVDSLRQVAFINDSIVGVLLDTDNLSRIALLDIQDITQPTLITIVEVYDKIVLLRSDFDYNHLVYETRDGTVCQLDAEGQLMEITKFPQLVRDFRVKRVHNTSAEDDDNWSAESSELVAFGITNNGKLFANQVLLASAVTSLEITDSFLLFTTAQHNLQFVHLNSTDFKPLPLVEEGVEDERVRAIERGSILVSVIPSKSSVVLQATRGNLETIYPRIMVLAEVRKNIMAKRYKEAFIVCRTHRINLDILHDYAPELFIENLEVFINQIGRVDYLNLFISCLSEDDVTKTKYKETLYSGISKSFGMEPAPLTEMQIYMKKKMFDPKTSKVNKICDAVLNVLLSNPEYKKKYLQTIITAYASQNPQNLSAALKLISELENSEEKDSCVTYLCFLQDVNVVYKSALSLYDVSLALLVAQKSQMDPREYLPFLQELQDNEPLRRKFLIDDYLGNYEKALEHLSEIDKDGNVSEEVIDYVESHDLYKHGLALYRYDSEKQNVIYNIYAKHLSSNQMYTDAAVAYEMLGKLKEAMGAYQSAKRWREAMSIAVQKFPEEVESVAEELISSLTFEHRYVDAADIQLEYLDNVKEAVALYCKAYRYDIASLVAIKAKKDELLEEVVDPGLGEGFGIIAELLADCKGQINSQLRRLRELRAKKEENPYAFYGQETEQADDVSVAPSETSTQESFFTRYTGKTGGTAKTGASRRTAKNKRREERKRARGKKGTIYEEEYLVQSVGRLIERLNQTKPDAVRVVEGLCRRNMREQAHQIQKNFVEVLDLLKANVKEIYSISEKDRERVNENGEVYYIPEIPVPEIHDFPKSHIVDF


Key:
[1] = biological target: T1, GST-tagged Sit4 (Saccharomyces cerevisiae (budding yeast)); assay: pull-down; 20 μg GST-tagged bait mixed with equimolar Hrr25 variant, GST Sepharose 4B, 1 h at 4°C; 20 mM Tris pH 7.5, 150 mM NaCl, 0.5% Tween 20, 2 mM DTT, 2 mM MgCl2; three washes; SDS-PAGE and WB with Hrr25-specific antibodies; both purified
[2] = biological target: T2, FL GST-Elp1 (Saccharomyces cerevisiae (budding yeast)); assay: as above
[3] = biological target: T3, Myc-tagged Elp1 (Saccharomyces cerevisiae (budding yeast)); assay: co-IP; IP of c-Myc-tagged Elp1 from yeast total protein extract (6.5 mg) with anti-c-Myc 9E10 on magnetic beads, 16 h at 4°C, IPP100 buffer (10 mM Tris-HCl pH 8, 100 mM NaCl, 0.1% NP-40, 1 mM DTT) with protease and phosphatase inhibitors; WB with anti-Hrr25

| Binder | binding [1] | binding [2] | binding [3] |
| --- | --- | --- | --- |
| Hrr25 K38R, predominantly trans-autophosphorylated (enzyme, UniProt P29295 1-494, phosphorylated in trans by Hrr25 WT; sites not given) MDLRVGRKFRIGRKIGSGSFGDIYHGTNLISGEEVAIRLESIRSRHPQLDYESRVYRYLSGGVGIPFIRWFGREGEYNAMVIDLLGPSLEDLFNYCHRRFSFKTVIMLALQMFCRIQYIHGRSFIHRDIKPDNFLMGVGRRGSTVHVIDFGLSKKYRDFNTHRHIPYRENKSLTGTARYASVNTHLGIEQSRRDDLESLGYVLIYFCKGSLPWQGLKATTKKQKYDRIMEKKLNVSVETLCSGLPLEFQEYMAYCKNLKFDEKPDYLFLARLFKDLSIKLEYHNDHLFDWTMLRYTKAMVEKQRDLLIEKGDLNANSNAASASNSTDNKSETFNKIKLLAMKKFPTHFHYYKNEDKHNPSPEEIKQQTILNNNAASSLPEELLNALDKGMENLRQQQPQQQVQSSQPQPQPQQLQQQPNGQRPNYYPEPLLQQQQRDSQEQQQQVPMATTRATQYPPQINSNNFNTNQASVPPQMRSNPQQPPQDKPAGQSIWL | binds | binds |  |
| Elp1 as used in the pull-down of Fig. 6C (protein, UniProt Q06706 1-1349) MVEHDKSGSKRQELRSNMRNLITLNKGKFKPTASTAEGDEDDLSFTLLDSVFDTLSDSITCVLGSTDIGAIEVQQFMKDGSRNVLASFNIQTFDDKLLSFVHFADINQLVFVFEQGDIITATYDPVSLDPAETLIEIMGTIDNGIAAAQWSYDEETLAMVTKDRNVVVLSKLFEPISEYHLEVDDLKISKHVTVGWGKKETQFRGKGARAMEREALASLKASGLVGNQLRDPTMPYMVDTGDVTALDSHEITISWRGDCDYFAVSSVEEVPDEDDETKSIKRRAFRVFSREGQLDSASEPVTGMEHQLSWKPQGSLIASIQRKTDLGEEDSVDVIFFERNGLRHGEFDTRLPLDEKVESVCWNSNSEALAVVLANRIQLWTSKNYHWYLKQELYASDISYVKWHPEKDFTLMFSDAGFINIVDFAYKMAQGPTLEPFDNGTSLVVDGRTVNITPLALANVPPPMYYRDFETPGNVLDVACSFSNEIYAAINKDVLIFAAVPSIEEMKKGKHPSIVCEFPKSEFTSEVDSLRQVAFINDSIVGVLLDTDNLSRIALLDIQDITQPTLITIVEVYDKIVLLRSDFDYNHLVYETRDGTVCQLDAEGQLMEITKFPQLVRDFRVKRVHNTSAEDDDNWSAESSELVAFGITNNGKLFANQVLLASAVTSLEITDSFLLFTTAQHNLQFVHLNSTDFKPLPLVEEGVEDERVRAIERGSILVSVIPSKSSVVLQATRGNLETIYPRIMVLAEVRKNIMAKRYKEAFIVCRTHRINLDILHDYAPELFIENLEVFINQIGRVDYLNLFISCLSEDDVTKTKYKETLYSGISKSFGMEPAPLTEMQIYMKKKMFDPKTSKVNKICDAVLNVLLSNPEYKKKYLQTIITAYASQNPQNLSAALKLISELENSEEKDSCVTYLCFLQDVNVVYKSALSLYDVSLALLVAQKSQMDPREYLPFLQELQDNEPLRRKFLIDDYLGNYEKALEHLSEIDKDGNVSEEVIDYVESHDLYKHGLALYRYDSEKQNVIYNIYAKHLSSNQMYTDAAVAYEMLGKLKEAMGAYQSAKRWREAMSIAVQKFPEEVESVAEELISSLTFEHRYVDAADIQLEYLDNVKEAVALYCKAYRYDIASLVAIKAKKDELLEEVVDPGLGEGFGIIAELLADCKGQINSQLRRLRELRAKKEENPYAFYGQETEQADDVSVAPSETSTQESFFTRYTGKTGGTAKTGASRRTAKNKRREERKRARGKKGTIYEEEYLVQSVGRLIERLNQTKPDAVRVVEGLCRRNMREQAHQIQKNFVEVLDLLKANVKEIYSISEKDRERVNENGEVYYIPEIPVPEIHDFPKSHIVDF | binds |  |  |
| Hrr25 wild type in yeast extract (enzyme, UniProt P29295 1-494) MDLRVGRKFRIGRKIGSGSFGDIYHGTNLISGEEVAIKLESIRSRHPQLDYESRVYRYLSGGVGIPFIRWFGREGEYNAMVIDLLGPSLEDLFNYCHRRFSFKTVIMLALQMFCRIQYIHGRSFIHRDIKPDNFLMGVGRRGSTVHVIDFGLSKKYRDFNTHRHIPYRENKSLTGTARYASVNTHLGIEQSRRDDLESLGYVLIYFCKGSLPWQGLKATTKKQKYDRIMEKKLNVSVETLCSGLPLEFQEYMAYCKNLKFDEKPDYLFLARLFKDLSIKLEYHNDHLFDWTMLRYTKAMVEKQRDLLIEKGDLNANSNAASASNSTDNKSETFNKIKLLAMKKFPTHFHYYKNEDKHNPSPEEIKQQTILNNNAASSLPEELLNALDKGMENLRQQQPQQQVQSSQPQPQPQQLQQQPNGQRPNYYPEPLLQQQQRDSQEQQQQVPMATTRATQYPPQINSNNFNTNQASVPPQMRSNPQQPPQDKPAGQSIWL |  |  | binds |
